Among all 310,000 compounds or so, about 2,200 (0.71%) showed an effect of 50% or more. The effect is printed as a negative number. The list shows a part of the results.
Target: human ether-à-go-go-related gene (hERG) potassium channel (human, UniProt Q12809)
Assay: primary screen, population patch clamp on CHO cells stably expressing hERG

Chain of human ether-à-go-go-related gene (hERG) potassium channel (Q12809 whole entry, looked up): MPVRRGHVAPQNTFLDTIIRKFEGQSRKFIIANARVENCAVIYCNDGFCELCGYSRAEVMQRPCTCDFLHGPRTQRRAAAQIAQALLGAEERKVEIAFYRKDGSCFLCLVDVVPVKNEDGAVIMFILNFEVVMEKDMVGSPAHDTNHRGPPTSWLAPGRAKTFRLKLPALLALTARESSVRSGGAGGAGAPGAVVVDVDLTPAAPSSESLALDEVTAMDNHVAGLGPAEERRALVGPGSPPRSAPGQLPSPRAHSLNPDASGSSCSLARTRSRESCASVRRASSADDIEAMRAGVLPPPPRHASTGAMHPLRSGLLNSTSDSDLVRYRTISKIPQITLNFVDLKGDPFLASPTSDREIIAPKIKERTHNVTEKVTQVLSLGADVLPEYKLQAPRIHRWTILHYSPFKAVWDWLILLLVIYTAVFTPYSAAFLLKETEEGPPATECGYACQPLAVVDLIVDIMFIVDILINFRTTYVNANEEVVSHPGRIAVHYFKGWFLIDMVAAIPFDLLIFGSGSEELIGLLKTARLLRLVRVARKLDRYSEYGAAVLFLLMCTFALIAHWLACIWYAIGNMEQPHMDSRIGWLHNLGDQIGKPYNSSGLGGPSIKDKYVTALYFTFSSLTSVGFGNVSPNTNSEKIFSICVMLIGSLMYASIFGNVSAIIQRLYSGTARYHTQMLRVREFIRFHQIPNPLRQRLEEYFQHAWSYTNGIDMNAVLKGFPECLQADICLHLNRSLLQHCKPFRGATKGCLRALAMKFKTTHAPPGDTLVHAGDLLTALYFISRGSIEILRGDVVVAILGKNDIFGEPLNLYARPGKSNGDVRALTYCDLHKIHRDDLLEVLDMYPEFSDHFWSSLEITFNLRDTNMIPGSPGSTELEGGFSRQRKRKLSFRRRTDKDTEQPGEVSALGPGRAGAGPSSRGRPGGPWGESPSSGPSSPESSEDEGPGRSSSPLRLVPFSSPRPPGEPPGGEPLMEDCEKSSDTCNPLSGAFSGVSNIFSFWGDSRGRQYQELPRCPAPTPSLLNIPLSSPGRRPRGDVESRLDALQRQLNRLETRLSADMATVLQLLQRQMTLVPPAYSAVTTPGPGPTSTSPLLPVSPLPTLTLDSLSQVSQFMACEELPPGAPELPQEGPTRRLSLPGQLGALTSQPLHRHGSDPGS

| Compound | hERG current change (%, negative = inhibition) at 1uM [%] |
| --- | --- |
| Cc1cc(C)c(S(=O)(=O)Nc2ccc(O)cc2)cc1C | -5.28 |
| Cc1cc(C)c2c(CN3CCOCC3)cc(=O)oc2c1C | 5.52 |
| c1ccc(NC2=Nc3ccccc3CS2)cc1 | 21 |
| CCCCN(C)C(=O)C1CCN(Cc2ccccn2)CC1.O=C(O)C(=O)O | 6.35 |
| CC1C(=O)N2CCCc3cc(S(=O)(=O)Nc4ccccc4F)cc1c32 (stereo not drawn) | 6.14 |
| CCC(CC)NC(=O)c1cccc(Br)c1 | 3.15 |
| CCOC(=O)c1nc(C)n(-c2ccc(Cl)cc2Cl)n1 | 13.2 |
| Cc1ccc(C(=O)N2CCN(C(=O)CN3CCCC3)C2)cc1 | 7.96 |
| COC1CCN(C(=O)C2CCC(=O)N(CCc3cccc(F)c3)C2)CC1 (stereo not drawn) | 14.3 |
| COc1ccc(-c2cn3c(C)c(C(=O)Nc4ccncc4)sc3n2)cc1 | 2.25 |
| O=C(CC1C(=O)NC2CCCCC2N1C(=O)c1ccc(F)cc1)Nc1ccccc1 (stereo not drawn) | 14.3 |
| CCCC(CCC)=NNC(=O)CN(Cc1ccccc1)S(=O)(=O)c1ccccc1 | 13.6 |
| CC(C)[C@H](NC(=O)c1nn(Cc2ccccc2)c(=O)c2ccccc12)C(=O)O | 5.2 |
| Cc1ccc(N2C(=O)C3C4C=CC(CC4)C3C2=O)c([N+](=O)[O-])c1 (stereo not drawn) | 10.6 |
| COc1ccc(CNS(=O)(=O)c2ccc(C)cc2)cc1 | 10.4 |
| Cc1ccc(S(=O)(=O)NCCc2nnc3ccc(SCc4cccnc4)nn23)cc1 | 9.2 |
| O=C1NC(=O)c2c(NC(=O)C3CCCO3)cccc21 (stereo not drawn) | 4.27 |
| O=C(c1cc2ccccc2[nH]1)N1CCOCC1 | 11.2 |
| CC1(C)CC(=O)C(C=NCCC2=CCCCC2)=C(O)C1 | 22.6 |
| COc1ccc2nc(SCC(=O)Nc3ccccc3C#N)[nH]c2c1 | 1.06 |
| N#CC(C(=O)C12CC3CC(CC(C3)C1)C2)c1nc2ccccc2[nH]1 (stereo not drawn) | 13.8 |
| Cc1cccc(N2CCN(C(=O)C3CCN(c4ncnc5c4nc4n5CCCCC4)CC3)CC2)c1C | 10.2 |
| CCCCCNC(=O)c1ccc2c(=O)n(CCOC)c(=O)[nH]c2c1 | 13.1 |

| Compound | hERG current change (%, negative = inhibition) at 1uM [%] |
| --- | --- |
| CCOC(=O)c1c(S(=O)(=O)NCC(=O)Nc2ccc(F)cc2)c(C)n(C)c1C | 15.8 |
| O=C(CSc1ccc(-c2ccccn2)nn1)Nc1ccc(F)cc1F | 8.3 |
| O=C(NC(=S)Nc1ccccc1C(=O)O)c1ccc2ccccc2c1 | 3.33 |
| CN1C(=S)SC(/[N+]([O-])=C\c2ccccc2)C1(C)C (stereo not drawn) | 8.38 |
| CCOc1ccc(-c2nc(S(=O)(=O)c3ccccc3)c(N3CCC(C(N)=O)CC3)o2)cc1 | 9.14 |
| [O-]/[N+](=C\c1ccc(F)cc1)c1ccccc1 | 13 |
| Cc1cc(S(=O)(=O)N2CCOCC2)ccc1OCC(=O)N1CCC(C)CC1 | 12.8 |
| COc1ccc(C(=O)/C=C/c2ccc(-c3ccccc3)cc2)cc1CSCC(=O)O | 100 |
| O=C(Nc1ccccc1N1CCOCC1)c1ccc(Br)o1 | 7.65 |
| COc1ccc(NC(=O)COc2ccccc2Cc2ccccc2)cc1S(N)(=O)=O | 16.3 |
| CCOC(=O)C(C(=O)N(C)Cc1ccccc1)C1CCCCC1 (stereo not drawn) | 13.1 |
| COc1ccc(CCCc2nnc(SCc3nc4ccccc4c(=O)[nH]3)n2C)cc1C | -2.88 |
| O=C(Nc1ccncc1)Nc1ccc(Br)cc1Cl | 18.7 |
| O=C(NC(=S)NC(c1ccccc1)c1ccncc1)c1ccccc1 (stereo not drawn) | 7.67 |
| O=C(O)c1cccnc1SCC(=O)C12CC3CC(CC(C3)C1)C2 | 4.38 |
| N#CCCN1CCN(Cn2c3ccccc3c3ccccc32)CC1 | 8.13 |
| COc1ccc(/C=N/N(C)C2=NS(=O)(=O)c3ccccc32)cc1OC | 10.8 |
| CCSc1nnc(NC(=O)CSc2nc(CC)nc3c2c(=O)n(C)c(=O)n3C)s1 | 14.2 |
| COc1ccc(CNC(=O)CCSCc2cccc(F)c2)cc1 | 7.46 |
| CCCCNC(=S)N(C)/N=C/c1ccc(OCc2ccc(C(=O)OC)cc2)c(OC)c1 | 9.6 |
| Cc1ccccc1-n1ncc2c1CC(C)(C)CC2NC(=O)c1ccncc1 (stereo not drawn) | -7.67 |
| CCOc1ccc2[nH]c(=O)c(CN(CCOC)C(=O)N3CCOCC3)cc2c1 | 11.7 |
| CC(C)(C)OC(=O)NCCCCCNC(=O)c1nc[nH]c1C(=O)N1CCN(C(=O)OC(C)(C)C)CC1 | 13.7 |

| Compound | hERG current change (%, negative = inhibition) at 1uM [%] |
| --- | --- |
| Cl.Cn1c(=O)c2c(nc(N3CCCCC3)n2CCNC2=NCCC2)n(C)c1=O | 8.12 |
| Cc1cc(NC(=O)c2ccc(F)cc2)n(-c2ccccn2)n1 | 7.33 |
| CNNC(=S)Nc1cccc(C(F)(F)F)c1 | 11.7 |
| CC(C)(CO)NCC(O)COc1ccc2c(c1)CCC2 (stereo not drawn) | 10.6 |
| O=C1CC(N2CC=C(c3ccc(F)cc3)CC2)C(=O)N1c1ccc(F)cc1 (stereo not drawn) | 5.54 |
| COC(=O)c1nc2n(n1)C(c1cc(OC)ccc1OC)C(C(=O)OC1CCCCC1)=C(C)N2 (stereo not drawn) | 6.83 |
| O=C(c1sccc1Cl)N1CCN(Cc2ccc3c(c2)OCO3)CC1 | 0.364 |
| CN(Cc1ccco1)S(=O)(=O)c1nnc(NC(=O)c2ccccc2)s1 | 9.94 |
| O=C(Nc1ccc2oc(-c3ccccc3)nc2c1)c1ccco1 | 7.32 |
| CC(C)CN(C(=O)COC(=O)c1ccc2c(c1)OCO2)c1c(N)n(Cc2ccccc2)c(=O)[nH]c1=O | 10.5 |
| CCOC(=O)C1=C(O)/C(=C\c2ccc(CNC(=O)C(=O)Nc3ccccc3)o2)N=C1C | 12 |
| COc1ccc(CCN(Cc2cc3cc(C)ccc3[nH]c2=O)C(C)=O)cc1OC | 8.74 |
| Cc1ccc(OCC2Cn3c(nc4c3c(=O)[nH]c(=O)n4C)O2)cc1C (stereo not drawn) | 9.89 |
| O=C(CN1CCN(C(=O)c2ccco2)CC1)Nc1ccc(F)cc1F | -18.1 |
| CCCc1ccccc1OCCNC(C)=O | 10.2 |
| Cc1ccc(-c2nc(N)n(C(=O)c3ccco3)n2)cc1 | 5.44 |
| CC(=O)N(Cc1cc2ccccc2[nH]c1=O)c1ccc(C)cc1 | 9.38 |
| O=C(c1ccccc1)C1CCCN(Cc2nc(-c3cnccn3)no2)C1 (stereo not drawn) | 17.9 |
| O=C(Oc1ccc(C(=S)N2CCOCC2)cc1)c1ccccc1F | 4.58 |
| O=C(CSc1nnc(SCc2ccccc2)s1)N/N=C/c1ccc(Cl)cc1Cl | 5.33 |
| Cc1ccc(N(CC(=O)NCc2ccco2)C(=O)CCC(=O)Nc2ccccn2)cc1C | 9.73 |
| O=C(CN1C(=O)NC2(CCOc3ccccc32)C1=O)c1ccc(F)c(F)c1 (stereo not drawn) | -8.01 |
| CCOC(=O)C(O)(c1ccc(N=Cc2ccccc2O)c(C)c1)C(F)(F)F (stereo not drawn) | 11.3 |

| Compound | hERG current change (%, negative = inhibition) at 1uM [%] |
| --- | --- |
| COc1ccc(Cl)cc1NC(=O)C(C)N1CCN(C/C=C/c2ccccc2)CC1.O=C(O)C(=O)O (stereo not drawn) | -14.3 |
| Cc1cccc(C(=O)O/N=C2\CCS(=O)(=O)c3sccc32)c1 | 13.4 |
| Cc1ccc(O)c(NC(=O)c2noc3c2CCCCC3)c1 | 11.3 |
| Cc1cccc(NC(=O)N2CC3CC(C2)c2cccc(=O)n2C3)c1 (stereo not drawn) | 14.4 |
| O=C(Nc1nc2c(ccc3ccccc32)s1)c1cc([N+](=O)[O-])ccc1N1CCOCC1 | 15.1 |
| CCOC(=O)N1CCN(CCC(=O)Nc2ccc(OC(F)(F)F)cc2)CC1 | -31.4 |
| COc1ccc(-c2cc(-c3nnc(COC(=O)c4ccc(O)cc4)o3)c3ccccc3n2)cc1OC | 9.17 |
| CCc1ccc(NC(=O)c2onc(C)c2Cl)cc1 | 12.3 |
| Cc1cc(C)c(OCC(=O)Nc2nnc(-c3ccco3)o2)c(C)c1 | 4.23 |
| COC(=O)c1cc(C)sc1NC(=O)CN1CCN(C(=O)C2CCCO2)CC1 (stereo not drawn) | -11.3 |
| COc1ccc(S(=O)(=O)CCC(=O)NCCc2ccc(Cl)cc2)cc1 | 14.5 |
| COc1ccc(N2CCN(Cc3oc(CO)cc(=O)c3O)CC2)cc1 | 2.29 |
| O=C(O)CCCNC1=NCCC1 | 12.9 |
| c1ccc2c(c1)C(=Nn1cnnc1)c1ccccc1-2 | 20.2 |
| O=C(O)Cn1cc(C(=O)C2CC2)c2ccccc21 | 11.9 |
| CCOc1ncccc1C(=O)OCC(=O)NCCc1ccc(S(N)(=O)=O)cc1 | 4.03 |
| CC1CC(C)CN(C(=O)CSc2ncnc3sccc23)C1 (stereo not drawn) | 16.1 |
| COC(=O)[C@H]1C[C@@H]1[C@H](NS(=O)(=O)c1ccccc1)c1ccccc1 | 9.44 |
| O=[N+]([O-])c1cccc(-n2nnnc2CNCc2ccccc2)c1 | 3.04 |
| COc1ccccc1CNC(=O)CCCNC(=O)c1ccc(Cl)cc1 | 20 |
| COc1cccc(NC(=O)C2CCCN(S(=O)(=O)c3cccc4nonc34)C2)c1 (stereo not drawn) | 11.8 |
